The supplement of paper PMC11417369
± gives the standard deviation of the averaged measurements. The list shows a part of the results.

System: PfAP2-EXP AP2 domain (GST-tagged)
Assay: gcPBM binding intensity (ln(normalized median fluorescence intensity)); higher = stronger DNA binding
Summary of the method: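 GST-fused DNA-binding domains of P. falciparum, expressed in E. coli, were applied at about 25 μg on average for 1 h to an Agilent 4 × 180k array of primer-extended double-stranded 36-bp intergenic genomic probes and negative controls. Binding intensity is the highest Masliner-normalised natural-log median intensity across replicate spots of either probe orientation, measured with Alexa488 anti-GST antibody and a 488 nm scan.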

Row | Sequence | gcPBM binding intensity (ln)
1 | AATTTTTTATTAAACACACAAACATATATATATATA [CACACA_site1937] | 9.94 ± 0.35
2 | GTTCATACTTAATATTGTACTTTTCATGTAGTGTAT [XGTACX_site6613] | 8.87 ± 0.51
3 | TACAAATATATATGCACACACATATACATACATATA [CACACA_site2182] | 8.57 ± 0.23
4 | TATTAGATATAATATATACACACCAACGAACGAAGA [CACACA_site1134] | 9.06 ± 0.56
5 | TAACATATTTTTAATACACACTCAAAAAAGTACTTA [CACACA_site5638] | 8.31 ± 0.37
6 | AAATAAATATTTATATGTACATATATTTTATAATAC [XGTACX_site7041] | 8.54 ± 0.28
7 | TTCATTCAAATTAACGTGCACATTATTAGTAAAAAC | 9.13 ± 0.099
8 | TTATATAATTTAATAGTGCAATTATATTAATTTTTC | 8.21 ± 0.16
9 | TAGATATATAATTTGCGTACACAAATAATATATTTT [XGTACX_site6397] | 8.51 ± 0.19
10 | TAGTTTTCTTAAAGATGTACATTTTAAAAATAATCT [XGTACX_site255] | 8.28 ± 0.36
11 | ATATATATATGTTACTGTACTAATTTATATGTTAAT [XGTACX_site3341] | 9.665 ± 0.064
12 | AATACAAATATATACACACATACATACATACATATA [CACACA_site3147] | 8.48 ± 0.35
13 | TTATGGTTTAAATAAAGTACAAATAAATAAATATAT [XGTACX_site5777] | 8.62 ± 0.37
14 | ATACACATATGTTAATGTACACATATATAATATTTA [XGTACX_site163] | 8.64 ± 0.33
15 | CACAAAAATAGACACACACACATATAGATTTATTAT [CACACA_site7676] | 8.56 ± 0.48
16 | TTTCTTAAATATATTGAGGAATAAAAAGAAGAAAAG [GTGCAC_negctrl_site281] | 8.69 ± 0.59
17 | TTATGAAAAATAAAATTAGAAAAAAAGGAAAATGAA [XGTACX_negctrl_site232] | 8.81 ± 0.47
18 | AGGTTACATAGATTTTGTACATATATATTATTTTTT [XGTACX_site3040] | 8.44 ± 0.38
19 | AAAAAATTATAAAAGTGTACATATATATATATATAT [XGTACX_site154] | 10 ± 0.38
20 | CATATTTCTTTATTGGCACACATTTTTTCAATTATA [CACACA_site1618] | 8.86 ± 0.32
21 | TTGAAAATACAAAATTGTACAAAGATTTAAATAAAA [XGTACX_site1182] | 8.71 ± 0.45
22 | TGAAATAAATAATGCACACTCTACAGATATACGTAT [CACACA_site5270] | 8.6 ± 0.34

Row | Sequence | gcPBM binding intensity (ln)
23 | AAAAAAAAAAAAAACACACACAAATTTAATCTATAT [CACACA_site6894] | 8.4 ± 0.42
24 | TGTTATTACTTTATATCATCTTAAAATAAGCATATT [CACACA_negctrl_site1501] | 8.29 ± 0.42
25 | TTTATTTATTACAATTTTTGAATCACCACACAGTCG [GTGCAC_negctrl_site413] | 8.31 ± 0.49
26 | ATCATGTTATATACATGTACATATATATATATATAT [XGTACX_site1329] | 10.2 ± 0.3
27 | TATTTATTTATGTGTTGTACAAATAAATAGAGGTAT [XGTACX_site6408] | 8.74 ± 0.47
28 | ATATATTAAAAACGATGTACCCTGAACTAAAAAAAA [XGTACX_site4986] | 8.65 ± 0.3
29 | TATATGAAAATGTTCATACACACATAAAAAAAAAAA [CACACA_site3237] | 8.46 ± 0.45
30 | ATATATATATATATATGTACATATTTTAATAATTAA [XGTACX_site8549] | 10.2 ± 0.23
31 | TGTTGTTACATATATACACACATATATATATTATAT [CACACA_site2397] | 8.6 ± 0.41
32 | CGCGCACACGGACACACACACACACGGATATAAATA [CACACA_site7102] | 8.69 ± 0.37
33 | TGGTATATATTTCCTTGTACATATAATATATATTGT [XGTACX_site3961] | 8.49 ± 0.57
34 | TAATATAGTATAGTATGTACATATAATTAGAATATT [XGTACX_site4053] | 8.76 ± 0.25
35 | TATTAAAGGGGTTTCACACACATGTATAATTAATTT [CACACA_site200] | 8.52 ± 0.49
36 | AACCATATTTAGATTACACACAGTTTAAATATTTTA [CACACA_site6712] | 8.31 ± 0.42
37 | AATATGAACAGACACACACACACAAAAAAAAAAAAA [CACACA_site2012] | 8.47 ± 0.53
38 | AATTTGTTATGTATATGTACATAAATAGATATATGA [XGTACX_site3930] | 8.62 ± 0.29
39 | TCTTGACGAAGTAGAAGGATATATATATAAAAAAAA [CACACA_negctrl_site641] | 8.63 ± 0.49
40 | AGGAGGTCAGTTCACAGTACCCAGAAAACTCTACGA [XGTACX_site1992] | 8.46 ± 0.56
41 | TCCAGGTATTTATTCTGTACACATAAAACATTTTAT [XGTACX_site8472] | 8.65 ± 0.33
42 | TCGTCTCTTCTTGTTCTGTTTTAGAAGGCTATATAT [CACACA_negctrl_site180] | 8.9 ± 0.46
43 | TTCTTATCAAGAGAAAGTACATAAAAAATTAATAAG [XGTACX_site1821] | 8.71 ± 0.46
44 | CAAAACCTACATAACATACACACGCATATATAGAAT [CACACA_site2846] | 8.67 ± 0.65
